Article PMC12405493, “Selective ubiquitination of drug-like small molecules by the ubiquitin ligase HUWE1” (Nature Communications, 2025)

Assays:
HUWE1^HECT = target: T1, HUWE1^HECT (Homo sapiens, UniProt Q7Z6Z7); assay: LC-MS/MS of ubiquitinated inhibitors from HUWE1^HECT-driven reactions (LysC digest); format: biochemical; design: key: The identification of the specified C-terminal Ub-derived peptides, resulting from LysC protease digestions with no or one missed cleavage site, respectively, is indicated by 'yes'; conditions: no missed cleavage, + ATP
T1 construct: the isolated HECT domain of HUWE1 (HUWE1^HECT); made in house
T1 sequence (Q7Z6Z7 4038-4374 limits assumed): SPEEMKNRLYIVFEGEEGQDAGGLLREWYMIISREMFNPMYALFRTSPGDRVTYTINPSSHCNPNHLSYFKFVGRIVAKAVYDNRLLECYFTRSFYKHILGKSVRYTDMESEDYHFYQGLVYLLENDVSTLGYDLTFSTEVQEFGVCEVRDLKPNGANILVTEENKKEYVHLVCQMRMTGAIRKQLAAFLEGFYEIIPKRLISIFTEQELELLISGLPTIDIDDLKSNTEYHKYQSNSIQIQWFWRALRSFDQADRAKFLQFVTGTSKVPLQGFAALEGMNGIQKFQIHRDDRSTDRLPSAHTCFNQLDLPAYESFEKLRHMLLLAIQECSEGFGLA
Experimental: LC/MS/MS of ubiquitinated inhibitors from reconstituted HUWE1^HECT-driven reactions: Proteins were separated by SDS-PAGE, followed by Coomassie staining, and the protein band of interest was cut out. Gel slices were reduced with 10 mM DTT at 56 °C for 55 min, alkylated with 55 mM chloroacetamide at 26 °C for 20 min, and digested with 0.2 μg LysC protease (Mass Spec Grade, Promega) at 37 °C overnight. The extracted peptides were dried in a speed-vac and then resuspended in 2% (v/v) ACN, 0.1% (v/v) FA, and analyzed on an Orbitrap Exploris 480 mass spectrometer, coupled to a Dionex U3000 nanoHPLC system (Thermo Fisher Scientific). Peptides were pre-concentrated and desalted on a trap column (PepMap, C18, 5 μm, 0.3 × 5 mm; Thermo Fisher Scientific) at 10 μL min^−1 in the above solvent, followed by the separation on a home-made capillary column (300 × 0.075 mm, ReproSil-Pur 120 C18-AQ, 1.9 μm; Dr Maisch GmbH), using a 58-min linear gradient from 10–45% of 0.08% (v/v) FA in 80% (v/v) ACN) versus 0.1% (v/v) FA at 300 nl min^−1. The mass spectrometer was operated in data-dependent acquisition (DDA) mode with a top-20 method, using higher-energy collisional dissociation (HCD) with an isolation width of 1.6 m/z and a collision energy setting of 28%. MS spectra across an m/z-range of 350–1600 were acquired at a resolution setting of 120,000 FWHM at m/z 200, and MS/MS spectra at a resolution setting of 30,000. Normalized AGC target (%) and maximum injection time (IT) for MS and MS/MS were set to 100 in 60 ms and 100 in 120 ms, respectively. Fixed first mass and dynamic exclusion values were set to 100 m/z and 9 s, respectively. Raw files were processed using MaxQuant v.2.0.3.0 (Max Planck Institute of Biochemistry)[56]. MS/MS spectra were searched against a UniProtKB human database containing 20422 protein entries (March 2023), supplemented with the human Ub sequence via the Andromeda search engine. Precursor and fragment ion mass tolerances were set to 6 and 20 ppm, respectively. […]

HUWE1^FL = target: T2, HUWE1^FL (Homo sapiens, UniProt Q7Z6Z7); assay: Targeted MS/MS of ubiquitinated inhibitors from HUWE1^FL-driven reactions (trypsin digest); format: biochemical; design: key: 'yes' indicates detection of compound-modified tryptic C-terminal ubiquitin peptides characteristic of the conjugated products listed in the left column; conditions: HUWE1^FL-driven reaction; + ATP
T2 construct: made in house; host or cells: HEK293T (transient transfection, anti-Flag purification, SEC)
Experimental: Samples for LC/MS/MS analyses of the ubiquitinated inhibitors from reconstituted HUWE1^FL-driven reactions were prepared by in-solution trypsin (Mass Spec Grade, Promega) digestion, instead of the gel-based LysC digestion procedure described above. […] In both cases, the samples were reduced and alkylated with 10 mM TCEP and 20 mM iodoacetamide at 37 °C in the dark for 60 min. An equal mixture of Sera-Mag SpeedBeads with hydrophilic and hydrophobic surfaces (GE Healthcare; 1:1 mix (v/v)) was washed twice with water and added to the sample at 50:1(w/w) resin-to-protein ratio. After adding ACN to a final percentage of 70% (v/v) and removing the supernatant, the resin was washed 3 x with 90% (v/v) ACN, resuspended in 50 mM triethylammonium bicarbonate (TEAB), containing sequencing-grade modified trypsin (1:25 (w/w) enzyme-to-protein ratio), and incubated at 37 °C, shaking at 1,000 rpm overnight. The resulting peptides were then dried, dissolved in 5% ACN/0.1% FA (both v/v), and measured on a hybrid quadruple-Obitrap Exploris480 mass spectrometer (Thermo Fisher Scientific) coupled to an Ultimate 3000 UHPLC system (Thermo Fisher Scientific). To this end, peptides were pre-concentrated and desalted on a trap column (PepMap, C18, 5 μm, 0.3 × 5 mm; Thermo Fisher Scientific) at 10 μL min^−1 in loading buffer (2% (v/v) ACN, 0.1% FA), followed by the separation on a self-made capillary column (ReproSil-Pur 120 C18-AQ, 1.9 μm, 300 × 0.075 mm; Dr Maisch GmbH), using a 63-min linear gradient from 10–38% of 0.08% (v/v) FA in 80% ACN/0.1% FA (both v/v) at 300 nl min^−1. Two MS measurements were performed, including full MS and targeted MS/MS scans (Full MS/tMS2). Full MS settings: detector type: Orbitrap; resolution: 120,000; m/z-range: 150–1300; RF lens (%)−50; AGC target: standard, maximum IT (ms): auto, data type: profile. tMS2 settings: isolation window (m/z): 1.4; activation type: HCD; HCD collision energy (%): 28; detector type: Orbitrap; Orbitrap resolution: 15,000; AGC target: standard; maximum IT (ms): 54; data type: profile. […]

What does the source list for Cc1c(C(=O)Nc2ccc(CN)cc2)ncnc1N1CCC(C#N)(c2ccccc2)CC1 [BI8622]?
Identification of compound-modified C-terminal Ub peptide ESTLHLVLRLRGG-compound (HUWE1^HECT): yes; Detection of compound-Ub conjugate (compound-modified tryptic C-terminal ubiquitin peptides) (HUWE1^FL): yes

What does the source list for NCc1cccc(CNc2ncnc3c(N4CCN(Cc5ccccc5)CC4)ncnc23)c1 [BI8626]?
Identification of compound-modified C-terminal Ub peptide ESTLHLVLRLRGG-compound (HUWE1^HECT): yes; Detection of compound-Ub conjugate (compound-modified tryptic C-terminal ubiquitin peptides) (HUWE1^FL): yes

What does the source list for NCc1ccc(CNc2ncnc3c(N4CCN(Cc5ccccc5)CC4)ncnc23)cc1 [derivative 1, N-(4-(aminomethyl)benzyl)−8-(4-benzylpiperazin-1-yl)pyrimido[5,4-d]pyrimidin-4-amine]?
Identification of compound-modified C-terminal Ub peptide ESTLHLVLRLRGG-compound (HUWE1^HECT): yes; Detection of compound-Ub conjugate (compound-modified tryptic C-terminal ubiquitin peptides) (HUWE1^FL): yes
